# In the supplement of paper PMC8728848:
# This is one part of the list.
# B1: AT1G15820(NC) (Arabidopsis thaliana) (protein)
# chain: MAMAVSGAVLSGLGSSFLTGGKRGATALASGVGDAIAPFSFGSLLGTQLLLMGWVESKRWVDFFNPDSQSVEWATPWSKTAENFANYTGDQGYPGGRFFDPLGLAGKNRDGVYEPDFEKLERLKLAEIKHSRLAMVAMLIFYFEAGQGKTPLGALGL
# What was measured:
# Experiment in all cases: glycan array binding signal (z-score within array); higher = stronger binding
# Conditions in all cases: glycan notation: IUPAC condensed, linker removed
# [1] = biological target: Neu5Ac(a2-3)GalNAc(b1-4)GlcNAc
# In short: (§1)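 From the Consortium for Functional Glycomics database, 3228 arrays were curated, keeping only those whose protein sequence was available. Binding is given as a within-array Z-score averaged across arrays sharing a protein sequence and across linkers. Negative Z-scores can be read as non-binding.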
# [2] = biological target: Neu5Ac(a2-3)[GalNAc(b1-4)]Gal(b1-4)Glc
# In short: as §1
# [3] = biological target: Neu5Ac(a2-3)[GalNAc(b1-4)]Gal(b1-4)GlcNAc
# In short: as §1
# [4] = biological target: Neu5Ac(a2-3)[GalNAc(b1-4)]Gal(b1-4)GlcNAc(b1-3)GalNAc
# In short: as §1
# [5] = biological target: Neu5Ac(a2-3)[Neu5Ac(a2-6)]GalNAc
# In short: as §1
# Neu5Ac(a2-6)Gal = biological target: Neu5Ac(a2-6)Gal
# In short: as §1
# [6] = biological target: Neu5Ac(a2-6)Gal(b1-3)GlcNAc(b1-3)[Gal(b1-4)GlcNAc(b1-6)]Gal(b1-4)Glc
# In short: as §1
# Neu5Ac(a2-6)Gal(b1-4)Glc = biological target: Neu5Ac(a2-6)Gal(b1-4)Glc
# In short: as §1
# [7] = biological target: Neu5Ac(a2-6)Gal(b1-4)GlcNAc
# In short: as §1
# [8] = biological target: Neu5Ac(a2-6)Gal(b1-4)GlcNAc(b1-2)Man
# In short: as §1
# [9] = biological target: Neu5Ac(a2-6)Gal(b1-4)GlcNAc(b1-2)Man(a1-3)Man(b1-4)GlcNAc(b1-4)GlcNAc
# In short: as §1
# [10] = biological target: Neu5Ac(a2-6)Gal(b1-4)GlcNAc(b1-2)Man(a1-3)[Gal(b1-4)GlcNAc(b1-2)Man(a1-6)]Man(b1-4)GlcNAc(b1-4)GlcNAc
# In short: as §1
# [11] = biological target: Neu5Ac(a2-6)Gal(b1-4)GlcNAc(b1-2)Man(a1-3)[GlcNAc(b1-2)Man(a1-6)]Man(b1-4)GlcNAc(b1-4)GlcNAc
# In short: as §1
# [12] = biological target: Neu5Ac(a2-6)Gal(b1-4)GlcNAc(b1-2)Man(a1-3)[GlcNAc(b1-4)][Neu5Ac(a2-6)Gal(b1-4)GlcNAc(b1-2)Man(a1-6)]Man(b1-4)GlcNAc(b1-4)GlcNAc
# In short: as §1
# [13] = biological target: Neu5Ac(a2-6)Gal(b1-4)GlcNAc(b1-2)Man(a1-3)[Man(a1-6)]Man(b1-4)GlcNAc(b1-4)GlcNAc
# In short: as §1
# [14] = biological target: Neu5Ac(a2-6)Gal(b1-4)GlcNAc(b1-2)Man(a1-3)[Neu5Ac(a2-3)Gal(b1-4)GlcNAc(b1-2)Man(a1-6)]Man(b1-4)GlcNAc(b1-4)GlcNAc
# In short: as §1
# [15] = biological target: Neu5Ac(a2-6)Gal(b1-4)GlcNAc(b1-2)Man(a1-3)[Neu5Ac(a2-6)Gal(b1-4)GlcNAc(b1-2)Man(a1-6)]Man(b1-4)GlcNAc(b1-4)GlcNAc
# In short: as §1
# [16] = biological target: Neu5Ac(a2-6)Gal(b1-4)GlcNAc(b1-2)Man(a1-3)[Neu5Ac(a2-6)Gal(b1-4)GlcNAc(b1-2)Man(a1-6)]Man(b1-4)GlcNAc(b1-4)[Fuc(a1-6)]GlcNAc
# In short: as §1
# [17] = biological target: Neu5Ac(a2-6)Gal(b1-4)GlcNAc(b1-2)Man(a1-6)Man(b1-4)GlcNAc(b1-4)GlcNAc
# In short: as §1
# [18] = biological target: Neu5Ac(a2-6)Gal(b1-4)GlcNAc(b1-2)Man(a1-6)[Gal(b1-4)GlcNAc(b1-2)Man(a1-3)]Man(b1-4)GlcNAc(b1-4)GlcNAc
# In short: as §1
# [19] = biological target: Neu5Ac(a2-6)Gal(b1-4)GlcNAc(b1-2)Man(a1-6)[GlcNAc(b1-2)Man(a1-3)]Man(b1-4)GlcNAc(b1-4)GlcNAc
# In short: as §1
# [20] = biological target: Neu5Ac(a2-6)Gal(b1-4)GlcNAc(b1-2)Man(a1-6)[Man(a1-3)]Man(b1-4)GlcNAc(b1-4)GlcNAc
# In short: as §1
# [21] = biological target: Neu5Ac(a2-6)Gal(b1-4)GlcNAc(b1-2)[Neu5Ac(a2-6)Gal(b1-4)GlcNAc(b1-4)]Man(a1-3)[GlcNAc(b1-4)][Neu5Ac(a2-6)Gal(b1-4)GlcNAc(b1-2)[Neu5Ac(a2-6)Gal(b1-4)GlcNAc(b1-6)]Man(a1-6)]Man(b1-4)GlcNAc(b1-4)GlcNAc
# In short: as §1
# [22] = biological target: Neu5Ac(a2-6)Gal(b1-4)GlcNAc(b1-2)[Neu5Ac(a2-6)Gal(b1-4)GlcNAc(b1-4)]Man(a1-3)[GlcNAc(b1-4)][Neu5Ac(a2-6)Gal(b1-4)GlcNAc(b1-4)Man(a1-6)]Man(b1-4)GlcNAc(b1-4)GlcNAc
# In short: as §1
# [23] = biological target: Neu5Ac(a2-6)Gal(b1-4)GlcNAc(b1-2)[Neu5Ac(a2-6)Gal(b1-4)GlcNAc(b1-6)]Man(a1-6)[Neu5Ac(a2-6)Gal(b1-4)GlcNAc(b1-2)Man(a1-3)][GlcNAc(b1-4)]Man(b1-4)GlcNAc(b1-4)GlcNAc
# In short: as §1
# [24] = biological target: Neu5Ac(a2-6)Gal(b1-4)GlcNAc(b1-3)Gal(b1-3)GlcNAc
# In short: as §1
# [25] = biological target: Neu5Ac(a2-6)Gal(b1-4)GlcNAc(b1-3)Gal(b1-4)GlcNAc
# In short: as §1
# [26] = biological target: Neu5Ac(a2-6)Gal(b1-4)GlcNAc(b1-3)Gal(b1-4)GlcNAc(b1-2)Man(a1-3)[Neu5Ac(a2-6)Gal(b1-4)GlcNAc(b1-3)Gal(b1-4)GlcNAc(b1-2)Man(a1-6)]GalNAc
# In short: as §1
# [27] = biological target: Neu5Ac(a2-6)Gal(b1-4)GlcNAc(b1-3)Gal(b1-4)GlcNAc(b1-3)Gal(b1-4)GlcNAc
# In short: as §1
# [28] = biological target: Neu5Ac(a2-6)Gal(b1-4)GlcNAc(b1-3)Gal(b1-4)GlcNAc(b1-3)Gal(b1-4)GlcNAc(b1-2)Man(a1-3)[Neu5Ac(a2-6)Gal(b1-4)GlcNAc(b1-3)Gal(b1-4)GlcNAc(b1-3)Gal(b1-4)GlcNAc(b1-2)Man(a1-6)]GalNAc
# In short: as §1
# [29] = biological target: Neu5Ac(a2-6)Gal(b1-4)GlcNAc(b1-3)Gal(b1-4)GlcNAc(b1-3)GalNAc
# In short: as §1
# [30] = biological target: Neu5Ac(a2-6)Gal(b1-4)GlcNAc(b1-3)Gal(b1-4)GlcNAc(b1-3)[Neu5Ac(a2-6)Gal(b1-4)GlcNAc(b1-3)Gal(b1-4)GlcNAc(b1-6)]GalNAc
# In short: as §1
# [31] = biological target: Neu5Ac(a2-6)Gal(b1-4)GlcNAc(b1-3)Gal(b1-4)GlcNAc(b1-6)[Gal(b1-3)]GalNAc
# In short: as §1
# [32] = biological target: Neu5Ac(a2-6)Gal(b1-4)GlcNAc(b1-3)Gal(b1-4)[Fuc(a1-3)]GlcNAc(b1-3)Gal(b1-4)[Fuc(a1-3)]GlcNAc
# In short: as §1
# [33] = biological target: Neu5Ac(a2-6)Gal(b1-4)GlcNAc(b1-3)GalNAc
# In short: as §1
# [34] = biological target: Neu5Ac(a2-6)Gal(b1-4)GlcNAc(b1-3)[Neu5Ac(a2-6)Gal(b1-4)GlcNAc(b1-6)]GalNAc
# In short: as §1
# [35] = biological target: Neu5Ac(a2-6)Gal(b1-4)GlcNAc(b1-6)GalNAc
# In short: as §1
# [36] = biological target: Neu5Ac(a2-6)Gal(b1-4)GlcNAc(b1-6)[Gal(b1-3)GlcNAc(b1-3)]Gal(b1-4)Glc
# In short: as §1
binder,measurement,setting,value
B1,glycan array binding signal (z-score),[1],0.125
same,glycan array binding signal (z-score),[2],-0.218
same,glycan array binding signal (z-score),[3],-0.475
same,glycan array binding signal (z-score),[4],0.125
same,glycan array binding signal (z-score),[5],0.083
same,glycan array binding signal (z-score),Neu5Ac(a2-6)Gal,-0.407
same,glycan array binding signal (z-score),[6],-0.089
same,glycan array binding signal (z-score),Neu5Ac(a2-6)Gal(b1-4)Glc,-0.637
same,glycan array binding signal (z-score),[7],-0.363
same,glycan array binding signal (z-score),[8],-0.411
same,glycan array binding signal (z-score),[9],-0.358
same,glycan array binding signal (z-score),[10],-0.457
same,glycan array binding signal (z-score),[11],-0.052
same,glycan array binding signal (z-score),[12],-0.578
same,glycan array binding signal (z-score),[13],-0.25
same,glycan array binding signal (z-score),[14],-0.265
same,glycan array binding signal (z-score),[15],0.112
same,glycan array binding signal (z-score),[16],0.316
same,glycan array binding signal (z-score),[17],-0.154
same,glycan array binding signal (z-score),[18],-0.043
same,glycan array binding signal (z-score),[19],-0.485
same,glycan array binding signal (z-score),[20],-0.633
same,glycan array binding signal (z-score),[21],-0.4
same,glycan array binding signal (z-score),[22],-0.69
same,glycan array binding signal (z-score),[23],0.1
same,glycan array binding signal (z-score),[24],0.514
same,glycan array binding signal (z-score),[25],-0.414
same,glycan array binding signal (z-score),[26],-0.569
same,glycan array binding signal (z-score),[27],-0.813
same,glycan array binding signal (z-score),[28],0.633
same,glycan array binding signal (z-score),[29],-0.217
same,glycan array binding signal (z-score),[30],-0.077
same,glycan array binding signal (z-score),[31],-0.069
same,glycan array binding signal (z-score),[32],-0.652
same,glycan array binding signal (z-score),[33],-0.606
same,glycan array binding signal (z-score),[34],-0.424
same,glycan array binding signal (z-score),[35],-0.559
same,glycan array binding signal (z-score),[36],-0.432
